Experimental data as given in article PMC12040169 (PLOS Biology, 2025).
The other results are listed elsewhere or left out.

System: T1, C. trachomatis L2/434/Bu expressing GFP (CTL2-GFP)
T1 construct: L2/434/Bu GFP intracellular growth in HeLa cells
Design: species or system HeLa; C. trachomatis total inclusion area by high-content imaging, normalised to DMSO
Conditions: total inclusion area; 28.5 h, 10 µM; inhibitor
Summary of the method: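 Following bulk GFP and resorufin fluorescence reads, infected cells were fixed, Hoechst-stained and imaged on a high-content platform. Inclusion total area and number per well served as growth proxies; nuclei counts indicated host viability. MICs were derived as for the fluorescence assay.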

Row | SMILES | % of control remaining
1 | O=C(NCC(O)c1ccccc1)Nc1ccccc1 (stereo not drawn) [CBK057227] | 90.5407
2 | Cc1nn(C)c(C)c1CN(C)C(=O)c1cc(-c2ccc(F)cc2)on1 [CBK281587] | 94.0067
3 | COc1nc2ccccc2nc1CCC(=O)NCc1ccco1 [CBK269866] | 53.6536
4 | CCCC(=O)Nc1ccc(-c2csc(N3CCN(C)CC3)n2)cc1 [CBK305025] | 34.6338
5 | COc1ccc(-c2ccc(C(=O)NCCN3CCOCC3)c(N(C)C(C)=O)n2)cc1 [CBK076545] | 87.4108
6 | COc1ccccc1-c1cnc(N)c(N2CCC(C(=O)O)CC2)n1 [CBK064082] | 122.995
7 | Cc1c(F)cccc1CNCC1CCN(C(=O)OC(C)(C)C)CC1 [CBK056717] | 109.616
8 | Cc1nc2cc(OCc3nc(C(=O)NCC4CCOC4)co3)ccc2s1 (stereo not drawn) [CBK307508] | 54.9743
9 | COc1cc(CCN2C(=O)c3cccc4cccc(c34)C2=O)c(S(=O)(=O)N2CCCC2)cc1OC [CBK264947] | 88.258
10 | COc1ccc(Cn2c(-c3ccc(OC)c(O)c3)nc3ccccc32)cc1O [CBK263370] | 85.8518
11 | NS(=O)(=O)c1ccc(CCNC(=O)/C=C/c2ccc([N+](=O)[O-])cc2)cc1 [CBK265683] | 79.9747
12 | CNS(=O)(=O)c1cc(C(=O)O)ccc1OC [CBK270179] | 88.1301
13 | Cc1cc(Cl)cc(Cl)c1S(=O)(=O)Nc1cccc(C(=O)O)c1 [CBK155682] | 126.921
14 | Cc1cc(=O)n2c3c(cc(S(=O)(=O)NC4CC4)cc13)CCC2 [CBK307572] | 87.5256
15 | NS(=O)(=O)c1ccc(C(=O)N2CCC3(CCN(C(=O)c4ccoc4)C3)C2)cc1 (stereo not drawn) [CBK131736] | 66.8779
16 | Cc1ccc(CNC(=O)CSc2nc(C)c(C)c(=O)[nH]2)cc1 [CBK287735] | 130.457
17 | CCc1ccc(OC)c(S(=O)(=O)NC2CC(C)(C)NC(C)(C)C2)c1 [CBK270098] | 88.7039
18 | COc1ccc(C(=O)c2oc3cc(NC(=O)c4cccnc4)ccc3c2C)cc1 [CBK287652] | 90.0503
19 | COc1cc(Cl)c(C)cc1NC(=O)C1CC=CCC1C(=O)O (stereo not drawn) [CBK296667] | 65.1938
20 | Cc1cccn2cc(CCNC(=O)CN3Cc4ccccc4C3)nc12 [CBK305166] | 62.446
21 | O=C(Nc1cccc(NS(=O)(=O)c2ccc(Cl)cc2)c1)c1ccco1 [CBK265956] | 94.189
22 | Cc1ccc2oc(-c3ccc(O)cc3)nc2c1 [CBK093878] | 70.0132
23 | Cc1csc2c(C3CCN(C(=O)c4cscn4)CC3)nc(C)n12 [CBK285246] | 70.6311
24 | OC1(c2cccnc2F)CCN(Cc2ccc(F)c(F)c2)CC1 [CBK284370] | 90.5164
25 | COc1ccccc1CCC(=O)Nc1cnn(C)c1 [CBK287995] | 81.9498
26 | O=C(O)c1cccc(Sc2cccc(C(F)(F)F)n2)c1 [CBK093592] | 114.077

Row | SMILES | % of control remaining
27 | NS(=O)(=O)c1ccc(CCNC(=O)c2ccc(C#CC3(O)CCCCC3)cc2)cc1 [CBK263104] | 85.982
28 | CCOc1ccc(N2C(=O)CC(N3CCN(CCc4ccccn4)CC3)C2=O)cc1 (stereo not drawn) [CBK270149] | 91.3309
29 | CCCC(=O)c1ccc(S(=O)(=O)N2CCN(Cc3cccc(F)c3C)CC2)cc1 [CBK063152] | 30.5934
30 | N#Cc1c(C(F)(F)F)cc(-c2ccco2)nc1SCc1ccccn1 [CBK267450] | 108.417
31 | O=c1[nH]c(CN2CCCCCCC2)nc2ccccc12 [CBK283205] | 88.3675
32 | Cn1c(C(=O)NCc2ccccc2)cc2ccccc21 [CBK200195] | 75.4275
33 | CC1C2CCCN2CCN1Cc1cccc(Oc2ccccc2)c1 (stereo not drawn) [CBK262880] | 104.188
34 | O=C(c1cccs1)[C@H]1CCCN(C(=O)c2cc(C3CC3)n[nH]2)C1 [CBK282411] | 116.285
35 | O=[N+]([O-])c1ccc(/C=N/C23CN4CN(CN(C4)C2)C3)s1 [CBK261752] | 85.982
36 | CC(C)(C)OC(=O)N1CCC[C@@H](C(=O)c2cccnc2)C1 [CBK284284] | 63.2349
37 | CCOC(=O)Cc1nc2cc([N+](=O)[O-])ccc2oc1=O [CBK015603] | 95.408
38 | Fc1ccc2c3c([nH]c2c1)C1(CCN(CCCOCc2ccccc2)CC1)NCC3 [CBK039858] | 102.031
39 | Cc1ccc(S(=O)(=O)N2CCCN(CC(O)c3ccccc3)CC2)cc1 (stereo not drawn) [CBK297911] | 81.9337
40 | COc1ccc(-c2cnc3[nH]c(=O)n([C@H](CO)C(C)C)c3n2)c(OC)c1OC [CBK065008] | 119.408
41 | COc1cccc(-n2ccn(C(=O)CCC3CCCC3)c2=O)c1 [CBK106625] | 86.8363
42 | C=CCn1c(SCc2nnc(-c3ccccc3)o2)nnc1C(O)c1ccccc1 (stereo not drawn) [CBK267368] | 91.4685
43 | COc1ccc(C(=O)N(CCC(C)C)Cc2nc(C)c(C)n2Cc2ccccc2Cl)c(OC)c1 [CBK093441] | 112.228
44 | OCCN1CCN(c2nc(-c3cccnc3)cn3ccnc23)CC1 [CBK037887] | 101.607
45 | CN(CC(=O)Nc1ccccc1N1CCNCC1)C(=O)c1ccccc1 [CBK028287T] | 55.9171
46 | CCn1ncnc1CN(c1cccc(CO)c1)C1Cc2ccccc2C1 [CBK304173] | 36.1517
47 | Cc1nc(NC(=O)c2cccc(NC(=O)C3CCCO3)c2)sc1-c1n[nH]c(=S)n1C (stereo not drawn) [CBK295341] | 58.6022
48 | Nn1cnn2c(SCC(=O)c3ccccc3)nnc12 [CBK263194] | 84.3271
49 | Cn1nccc1C(=O)NC(Cc1cccs1)c1ccccn1 (stereo not drawn) [CBK285207] | 80.309
50 | NCCN(C(=O)CCc1cc(C(F)(F)F)cc(C(F)(F)F)c1)c1ccc2c(c1)OCO2 [CBK000701T] | 54.9544
51 | CCOc1ccc(-n2c(C)cc(C(=O)NS(=O)(=O)c3ccc(C)cc3)c2C)cc1 [CBK296084] | 107.296
